Experimental data from the antibiotic and cytotoxicity screens of Wong et al. (2023).
Some of the results follow.

test system: HSkMC (human skeletal muscle cells); assay: cytotoxicity call (relative viability < 0.9); conditions: 10 µM

SMILES	cytotoxicity call
COC(=O)[C@@H](N)c1cccc(OC)c1	inactive
C[C@@H]1CN([C@@H](C)CO)C(=O)c2cc(NC(=O)C3CCCCC3)ccc2O[C@@H](C)CCCCO[C@@H]1CN(C)S(=O)(=O)c1ccccc1	inactive
O=C(C[C@H]1C=C[C@H](NS(=O)(=O)c2ccc(F)cc2)[C@H](CO)O1)NCc1ccc(Cl)c(Cl)c1	inactive
COc1ccc(CN(C)C[C@@H]2OCCCC[C@@H](C)Oc3ccc(NC(=O)Nc4ccc(OC)cc4)cc3C(=O)N([C@@H](C)CO)C[C@@H]2C)cc1	inactive
C[C@@H]1CN([C@@H](C)CO)C(=O)c2cc(NC(=O)C3CC3)ccc2O[C@H]1CN(C)Cc1ccc2c(c1)OCO2	inactive
COC(=O)C1(N2CC3=C[C@@H]([C@@H](O)Cc4ccccc4)n4c(=O)n(C)c(=O)n4[C@@H]3[C@@H](C3CC3)O2)CCCC1	inactive
COc1cc(C)c(C(=O)Oc2cc(C)c(C(=O)O)c(O)c2)c(O)c1	inactive
C[C@@H]1CN([C@@H](C)CO)C(=O)c2cc(NS(=O)(=O)c3cn(C)cn3)ccc2O[C@H]1CN(C)S(=O)(=O)c1cn(C)cn1	inactive
C[C@@H]1CN([C@@H](C)CO)C(=O)c2cccc(NS(=O)(=O)c3cccs3)c2O[C@@H]1CN(C)S(=O)(=O)c1cn(C)cn1	inactive
COc1ccc(NC(=O)Nc2ccc3c(c2)C(=O)N([C@@H](C)CO)C[C@@H](C)[C@@H](CN(C)Cc2ccc(C(F)(F)F)cc2)O3)cc1	inactive
Cc1ccc(-c2nc(Nc3cccc(Cl)c3)sc2C)cc1	inactive
COc1ccc(cc1)S(=O)(=O)N1C[C@]2(CN(Cc3ccncc3)[C@H](CO)c3[nH]c4cc(ccc4c32)OC)C1	inactive
CC(C)NC(=O)Nc1ccc2c(c1)C(=O)N([C@@H](C)CO)C[C@@H](C)[C@H](CN(C)Cc1ccc(C(F)(F)F)cc1)OCCCC[C@H](C)O2	inactive
O=C(O)CCCCCCCC(=O)O	inactive
O=C(NCCO)c1cc2ccccc2c(=O)s1	inactive
C[C@H]1CCCCO[C@@H](CN(C)C(=O)Nc2ccc3c(c2)OCO3)[C@@H](C)CN([C@@H](C)CO)C(=O)c2cc(NC(=O)CCC(F)(F)F)ccc2O1	inactive
C[C@@H]1CN([C@H](C)CO)C(=O)c2cc(NS(=O)(=O)c3ccc(Cl)cc3)ccc2O[C@@H](C)CCCCO[C@H]1CN(C)S(=O)(=O)c1ccc(Cl)cc1	inactive
COCC(=O)Nc1ccc2c(c1)[C@@H]1C[C@H](CC(=O)N3CCOCC3)O[C@@H](CO)[C@@H]1O2	inactive
COC(=O)C(CC#Cc1ccc2c(c1)[C@]1(C(=O)N2)[C@H](c2ccc(OCCO)cc2)N2[C@H](c3ccccc3)[C@H](c3ccccc3)OC(=O)[C@H]2[C@@H]1C(=O)N1CCc2cc(OC)c(OC)cc2C1)C(=O)OC	inactive
COc1ccc(S(=O)(=O)N(C)C[C@@H]2OCCCC[C@@H](C)Oc3ccc(NC(=O)C4CCCCC4)cc3C(=O)N([C@H](C)CO)C[C@@H]2C)cc1	inactive
C[C@@H]1CCCCO[C@@H](CN(C)CC2CCCCC2)[C@H](C)CN([C@H](C)CO)C(=O)c2cc(NC(=O)NC3CCCCC3)ccc2O1	inactive
O=C1N[C@H](c2ccccc2)COCc2cn(nn2)CC[C@@H](Cc2ccc(C(F)(F)F)cc2)C(=O)N[C@H](c2ccccc2)COCc2cn(nn2)CC[C@H]1Cc1ccc(C(F)(F)F)cc1	inactive
Cc1noc(C)c1NC(=O)N(C)C[C@@H]1Oc2ccc(NC(=O)Nc3ccc(C(F)(F)F)cc3)cc2C(=O)N([C@H](C)CO)C[C@@H]1C	inactive
C[C@@H]1CN([C@@H](C)CO)C(=O)c2cc(C#Cc3ccccc3F)cnc2O[C@@H]1CN(C)C(=O)c1ccc2c(c1)OCO2	inactive
C[C@H]1CN([C@@H](C)CO)C(=O)Cc2cc(NC(=O)CCC(F)(F)F)ccc2O[C@H]1CN(C)Cc1ccc(Oc2ccccc2)cc1	inactive
CCCNC(=O)N[C@@H]1C=C[C@@H](CC(=O)N2CCN(C)CC2)O[C@H]1CO	inactive
C[C@H](CO)N1C[C@H](C)[C@H](CN(C)C(=O)Nc2ccccc2)OCCCC[C@H](C)Oc2ccc(NS(=O)(=O)c3ccccc3)cc2C1=O	inactive
O=C(c1cnc2ccccc2c1)C1CC1	inactive
C[C@@H]1CN([C@H](C)CO)C(=O)Cc2cc(NC(=O)Nc3cccc4ccccc34)ccc2O[C@@H]1CN(C)Cc1ccccc1	inactive
